Assay results: PMC4336329 (PLoS ONE, 2015)
The whole screen tested about 310,000 compounds, of which about 14,000 (4.5%) showed an effect of 50% or more. Effects have a minus sign here. This is one part of the list.

Target: human ether-à-go-go-related gene (hERG) potassium channel (human, UniProt Q12809)
Assay: primary screen, population patch clamp on CHO cells stably expressing hERG
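Note: peak tail current of the secondary pulse compared with the same well before compound.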

Sequence of human ether-à-go-go-related gene (hERG) potassium channel (Q12809 whole entry, looked up): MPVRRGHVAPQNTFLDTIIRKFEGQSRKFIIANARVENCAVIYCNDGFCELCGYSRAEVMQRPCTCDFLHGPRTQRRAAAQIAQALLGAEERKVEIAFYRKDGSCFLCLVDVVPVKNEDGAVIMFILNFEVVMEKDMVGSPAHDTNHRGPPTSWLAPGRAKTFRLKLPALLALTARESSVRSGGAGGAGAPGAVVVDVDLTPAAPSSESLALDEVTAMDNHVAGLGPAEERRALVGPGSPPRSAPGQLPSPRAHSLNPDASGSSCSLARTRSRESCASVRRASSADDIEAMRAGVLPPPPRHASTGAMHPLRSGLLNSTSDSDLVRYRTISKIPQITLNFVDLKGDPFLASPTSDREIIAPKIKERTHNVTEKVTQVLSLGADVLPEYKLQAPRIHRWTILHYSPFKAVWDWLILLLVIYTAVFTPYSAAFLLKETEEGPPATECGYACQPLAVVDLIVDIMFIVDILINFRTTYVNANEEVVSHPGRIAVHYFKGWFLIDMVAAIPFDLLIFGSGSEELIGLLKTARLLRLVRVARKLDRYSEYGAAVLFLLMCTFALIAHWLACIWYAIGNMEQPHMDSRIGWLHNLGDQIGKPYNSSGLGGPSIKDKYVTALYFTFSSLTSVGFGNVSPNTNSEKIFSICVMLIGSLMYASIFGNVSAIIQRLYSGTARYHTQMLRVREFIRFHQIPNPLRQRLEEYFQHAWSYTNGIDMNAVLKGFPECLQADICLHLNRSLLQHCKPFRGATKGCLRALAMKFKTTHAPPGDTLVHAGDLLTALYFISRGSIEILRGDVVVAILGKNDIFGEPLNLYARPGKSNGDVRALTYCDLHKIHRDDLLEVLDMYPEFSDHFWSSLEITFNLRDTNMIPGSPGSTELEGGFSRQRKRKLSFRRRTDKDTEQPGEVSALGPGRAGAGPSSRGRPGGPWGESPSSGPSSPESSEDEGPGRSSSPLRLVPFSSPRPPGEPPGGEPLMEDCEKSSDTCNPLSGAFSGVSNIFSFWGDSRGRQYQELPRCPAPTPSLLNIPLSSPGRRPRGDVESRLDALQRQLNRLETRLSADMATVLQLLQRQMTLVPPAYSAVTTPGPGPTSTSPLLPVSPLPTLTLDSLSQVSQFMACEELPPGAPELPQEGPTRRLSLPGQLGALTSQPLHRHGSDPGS

Row | SMILES | hERG current change (%, negative = inhibition) at 10uM [%]
1 | CCOC(=O)C1C(=O)CC(C)(O)C(C(=O)OCC)C1c1ccc(N(CC)CC)cc1 (stereo not shown) | 1.98
2 | CS(=O)(=O)N1CCC(c2noc(-c3ccc(C(F)(F)F)cc3)n2)CC1 | -1.74
3 | COc1ccccc1N(Cc1cc(=O)[nH]c2ccccc12)C(C)=O | 15.4
4 | CC(=O)N1SC(N)=NC1c1ccccc1 (stereo not shown) | 2.4
5 | O=C(COc1ccc(Cl)cc1Cl)Nc1ccc(CN2CCOCC2)cc1 | 15.4
6 | CCCCC1(Cc2cccc([N+](=O)[O-])c2)C(=O)N(c2ccccc2)N(c2ccccc2)C1=O | 18.4
7 | CCOc1ccccc1N1CCN(C(=O)c2ccccc2)CC1 | 11
8 | Cc1ccc(NC(=O)NNC(=O)c2snnc2C)cc1 | 2.71
9 | CC(=O)NC(=S)Nc1ccccc1F | 30.4
10 | O=C(CC1S/C(=N/N=C/c2cccs2)NC1=O)Nc1ccc(Cl)c(Cl)c1 (stereo not shown) | 9.99
11 | CN(CCN1CCOCC1)Cc1nc(-c2ccccc2)no1 | 10.4
12 | CC(=O)Cn1cnc2c(cnn2-c2ccc(C)c(C)c2)c1=O | -4.16
13 | CCc1ccc(S(=O)(=O)Nc2cc3c(cc2N2CCOCC2)n(C)c(=O)c(=O)n3C)cc1 | -32.1
14 | O=C1OCC(CO)(CO)N=C1NNc1cc(Cl)ccc1Cl | 5.41
15 | O=C(CSc1nc2ccc(Cl)cc2[nH]1)c1c[nH]c2ccccc12 | 26.8
16 | OCCNc1nc(Nc2ccc(Cl)cc2)nc(N2CCCC2)n1 | -15.1
17 | COc1cccc(OC)c1C(=O)Nc1c(C)n(C)n(-c2ccccc2)c1=O | 5.31
18 | Cc1ccccc1-c1ccc(=O)n(CC(=O)Nc2ccc(N3CCOCC3)cc2)n1 | 4.89
19 | O=C(Nc1ccccc1)C1CCN(c2nccs2)CC1 | -6.38
20 | O=[N+]([O-])c1ccccc1/C=N/NC1=NS(=O)(=O)c2ccccc21 | -1.94
21 | CCN(CCNC(=O)C1CC(=O)N(CCc2ccccc2)C1)c1ccccc1 (stereo not shown) | 0.353
22 | CC(=O)c1ccc(NCCC(=O)c2ccccc2)cc1 | -4.19

Row | SMILES | hERG current change (%, negative = inhibition) at 10uM [%]
23 | Cc1occc1C(=O)N/N=C/c1ccccc1[N+](=O)[O-] | -6.74
24 | O=C(O)C1(P(=O)(c2ccc(Cl)cc2)c2ccc(Cl)cc2)CC1 | 14.8
25 | C=CCOC(=O)C(C#N)c1nc2ccccc2nc1N1CCN(c2ccccc2OCC)CC1 (stereo not shown) | 8.71
26 | COc1ccc(N(CC(=O)NCCSc2ccccn2)S(=O)(=O)c2ccccc2)c(OC)c1 | 17.1
27 | O=[N+]([O-])c1cc2cccnc2c2ncccc12 | 18.7
28 | COc1ccccc1NC(=O)CCC(=O)OCc1ccc(Br)cc1 | -1.43
29 | CCc1ccc(C2C(C#N)=C(N)N(N(C)C)C3=C2C(=O)CCC3)cc1 (stereo not shown) | -3.08
30 | Cc1cccc(OCCOC(=O)Nc2ccccc2)c1 | 22.7
31 | CCOC(=O)NC1(Nc2ccc(C)cc2)Oc2ccccc2O1 | -6.79
32 | NC1=NN=C(N2N=C(c3ccco3)CC2(O)C(F)(F)F)n2ncnc2C1 (stereo not shown) | 5.62
33 | CCOc1ccc(N2CC(C(=O)Nc3ccc4c(c3)OCO4)CC2=O)cc1 (stereo not shown) | -15.7
34 | Cc1c(Cl)cccc1Nc1ncccc1C(=O)OCC(O)CO (stereo not shown) | 9.92
35 | O=C(O)c1ccc(S(=O)(=O)c2ccc3c(c2)C(=O)N(Cc2ccco2)C3=O)cc1 | -0.841
36 | NC(=O)OCC(COC(N)=O)c1ccccc1 | 22.3
37 | CCOC(=O)CSCc1cn2cc(Cl)ccc2n1 | -11.4
38 | CCOC(=O)C1CCCN(C(=O)c2cc(-c3ccccc3)nc3ccccc23)C1 (stereo not shown) | -9.9
39 | Cc1cccn2c(=O)c3cc(C(N)=S)c(=N)n(CCCOC(C)C)c3nc12 | -78.2
40 | COc1cccc(-c2noc(C3CCCN(C(=O)Cc4ccccc4)C3)n2)c1 (stereo not shown) | -30.3
41 | CSc1nc2sc3c(c2c(=O)n1C1CCCCC1)CCN(C)C3 | -1.74
42 | CCCNC(=S)NC1CC2CCC(C1)N2Cc1ccccc1 (stereo not shown) | -35.7
43 | CCOC(=O)c1cnn2c(N)c(C#N)nnc12 | -2.76
44 | CN(C)S(=O)(=O)c1ccc(Cl)c(C(=O)NC2CCN(Cc3ccccc3)C2)c1 (stereo not shown) | 8.32

Row | SMILES | hERG current change (%, negative = inhibition) at 10uM [%]
45 | Cc1ccc(NC(=S)NNC(=O)Cn2nc(C(F)F)cc2C(F)F)cc1 | 12.6
46 | CCOc1ccc(N2CC(C(=O)NCCc3ccc(F)cc3)CC2=O)cc1 (stereo not shown) | -65.8
47 | CCn1c(SCC(=O)N2CCCc3ccccc32)nnc1-c1c[nH]c2ccccc12 | -23.2
48 | CCOC(=O)c1c(N)sc(C(O)(C(F)(F)F)C(F)(F)F)c1-c1ccc(OC)cc1OC | 7.87
49 | CCc1noc(C)c1C(=O)NCCc1ccccc1 | 7.24
50 | S=C(NCc1ccc(Cl)cc1)NC1CCCCC1 | -21.8
51 | Cn1cccc1Cc1nnc(SCC(=O)NCc2ccco2)n1CCc1ccccc1 | -19
52 | Cc1ccccc1CSc1nnc2ccc(-c3ccncc3)nn12 | -20.8
53 | O=C(CCNS(=O)(=O)c1cccc2nsnc12)NCCC1=CCCCC1 | 2.43
54 | Cc1cc(C)cc(NC(=O)CN2C(=O)C3CC=CCC3C2=O)c1 (stereo not shown) | 4.39
55 | COc1cccc(CCc2nnc(CCC(=O)NC(C)Cc3cccs3)o2)c1 (stereo not shown) | 1.09
56 | CCOc1ccc(N(C)S(=O)(=O)c2ccc3[nH]cc(C(=O)NCC4CCCO4)c(=O)c3c2)cc1 (stereo not shown) | 9.16
57 | Cc1ccccc1NC(=O)CCn1c(=O)oc2ccccc21 | -3.03
58 | CCOc1ccccc1NC(=O)CSc1nnc(CCC(=O)Nc2ccccc2F)n1C | -12.8
59 | O=C(c1ccc2ccccc2c1)N1CCN(c2ccc(C(F)(F)F)cn2)CC1 | -2
60 | CN(C(=O)CN1C(=O)C2C3CC(C(Br)C3Br)C2C1=O)C1CCCCC1 (stereo not shown) | -8.93
61 | COc1ccc(C(=O)NN2CC(O)=C(c3nc4ccccc4n3C)C2=N)cc1OC | -9.66
62 | COc1cccc(CN(C)CC(=O)NCc2ccc(F)cc2)c1OC | 6.98
63 | CCNc1ccc(S(=O)(=O)NCCN(C)C)cc1[N+](=O)[O-] | -25.9
64 | O=S(=O)(c1ccc(SCc2ccccc2)nc1)N1CCCC1 | -19.2
65 | CCCn1cc(CN2CCC(n3nccc3NC(=O)C(OC)c3ccccc3)CC2)c(C)n1 (stereo not shown) | -14.3
66 | COc1ccc2[nH]c(=O)c(CN(Cc3ccco3)C(=O)c3ccccc3)cc2c1 | -4.78

Row | SMILES | hERG current change (%, negative = inhibition) at 10uM [%]
67 | O=C(Cc1ncon1)Nc1ccc(F)c(F)c1F | 6.74
68 | Cc1ccc2oc(C(=O)N3CCN(Cc4ncccc4C)CC3)c(C)c2c1 | -78.3
69 | CC(=O)Nc1ccc(NC(=O)C(C)OC(=O)CCC2CCCC2)cc1 (stereo not shown) | -13.8
70 | Cc1ccccc1N(C(=O)Cn1nnc(-c2cccs2)n1)C(C(=O)NCCC(C)C)c1ccco1 (stereo not shown) | -5.49
71 | Cc1ccc(NC(=O)COc2ccc(/C=C3/NC(=O)NC3=O)cc2)cc1 | -12.2
72 | COc1cc(C)ccc1NC(=O)c1ccc(S(=O)(=O)N2CCOCC2)cc1 | 5.58
73 | COC(=O)c1cc(C(=O)OCC(=O)Nc2cc(C)on2)cc([N+](=O)[O-])c1 | 17.1
74 | CSCC(C)N1CCC(Oc2cccc(C(=O)NCc3ccccn3)c2)CC1 (stereo not shown) | 5.23
75 | COc1ccc(C(CNC(=O)c2cc3ccccc3cc2OC)N2CCCC2)cc1 (stereo not shown) | -67.5
76 | Cc1ccc(-c2c(C)n([O-])c3c([n+]2=O)CCCCC3)o1 | -1.3
77 | CN(Cc1ccccc1)C(=O)CC(c1ccccc1)c1cc(Cl)ccc1O (stereo not shown) | -5.96
78 | Cc1ccc2cc(CN(Cc3ccco3)C(=S)NCC3CCCO3)c(=O)[nH]c2c1C (stereo not shown) | -22.7
79 | O=C(NCCF)[C@H]1C[C@@H]1[C@H](NP(=O)(c1ccccc1)c1ccccc1)c1ccccc1 | -5.14
80 | COc1ccc(CN2CCC(CO)(Cc3cccc(C(F)(F)F)c3)CC2)cc1Cn1cccn1 | -75.7
81 | Cc1ccc(-n2c3c(cc(C(=O)NCCCN4CCOCC4)c2=O)C(=O)CC(C)(C)C3)cc1 | 0.0965
82 | COc1ccc(OC)c(Nc2nc(N)nc(CCl)n2)c1 | -2.25
83 | CCOC(=O)c1ccc(N2C(=O)CC(NC3CCN(C(=O)c4cccc(Cl)c4)CC3)C2=O)cc1 (stereo not shown) | -35.9
84 | COc1cc2c(cc1OC)C(COc1cc(C)cc(C)c1)N(C(C)=O)CC2 (stereo not shown) | -22.9
85 | COc1cc(/C=N/NC(=S)Nc2cccnc2)cc(OC)c1O | 11.5
86 | O=C(NC1CCC(O)CC1)c1ccc(-c2ccc([N+](=O)[O-])cc2)o1 (stereo not shown) | -76.2
87 | NC(=O)c1c(NC(=O)C2CCCO2)sc2c1CCCCC2 (stereo not shown) | -0.219
88 | COc1ccc(NC(=O)Cn2ncn3c(cc4ccccc43)c2=O)c(OC)c1OC | 11.5
